Measured values published in PubChem BioAssay (NCATS).
The other results are listed elsewhere or left out. Shown are side measurements of this screen, not its main read-out; they come without a call. Potencies come from curve fits of mixed quality, noted in brackets.

Assay: qHTS drug screen for cell cycle checkpoint inhibitors in PARPi-resistant BRCA-mutant ovarian cancer cell lines. (AID 1963452)
Settings: PEO1/OlaR viability, CellTiter-Glo luminescence, 96 h
Procedure, shortened: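 PEO1, PEO4 and PEO1/OlaR ovarian cancer cells, 600 per well, exposed 96 h at 37C to a dilution series. Viability read by CellTiter-Glo luminescence, normalized to DMSO and empty wells; activity summarized as Z-AUC.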

[1] = measured here: PEO1 parental viability
Tags tell the direction and shape of the fitted curve.

SMILES | AC50 [1] | AC50 (measured here: PEO4 viability)
C[C@H]1CNC(=O)c2cnn3ccc(nc23)N[C@H](C)c2cc(F)ccc2O1 | 1.55 µM [falling, full curve] | 1.55 µM [falling, full curve]
FC(F)(F)c1ccc(/C=C/c2nc(COc3ccc(CCCCn4ccnn4)cc3)co2)cc1 | 0.0174 µM [falling, full curve] | 0.0977 µM [falling, full curve]
CCS(=O)(=O)Nc1ccc(Oc2ccc(F)cc2F)c(-c2cn(C)c(=O)c3[nH]ccc23)c1 | 0.155 µM [falling, full curve] | 0.11 µM [falling, full curve]
CNc1nc(-c2ccc3c(N)n[nH]c3c2)cc(N2C[C@@H](C(=O)NC3CCCCC3)CC[C@H]2C)n1 | 15.5 µM [falling, partial curve] | 13.8 µM [falling, partial curve]
C=CC(=O)Nc1cccc(Nc2nc(Nc3ccc(NC4CN(CCF)C4)cc3OC)ncc2C(F)(F)F)c1 | 9.77 µM [falling, partial curve] | 11 µM [falling, partial curve]
c1cc(Nc2cc(C3CC3)[nH]n2)nc(Nc2ccc3nc[nH]c3c2)n1 | 0.219 µM [falling, full curve] | 0.0692 µM [falling, full curve]
C[C@H]1C[C@@H](n2c(Nc3ccc(OC(F)(F)F)cc3)nc3cc(CCC(=O)O)ccc32)CC(C)(C)C1 | 15.5 µM [falling, single point] | 27.5 µM [falling, single point]
Cc1ncc(NC(=O)c2ccc(CN3CCN(C)CC3)c(C(F)(F)F)c2)cc1Nc1nccc(-c2cccnc2)n1 | 24.5 µM [falling, single point] | 24.5 µM [falling, single point]
CCc1ccc(N(CC(C)C)S(=O)(=O)c2ccc(OCC3CCOCC3)c(CO)c2)cc1 | 17.4 µM [falling, single point] | 24.5 µM [falling, single point]
Cc1sc2c(c1C)C(c1ccc(Cl)cc1)=N[C@@H](CC(=O)Nc1ccc(OCCOCCOCCOCCNc3cccc4c3C(=O)N(C3CCC(=O)NC3=O)C4=O)cc1)c1nnc(C)n1-2 (stereo partly specified) | 0.0219 µM [falling, full curve] | 0.0436 µM [falling, full curve]
COc1ccc(N2C(=O)N(c3c(C)cccc3Cl)Cc3cnc(Nc4ccc(C5CCN(C)CC5)cc4OC)nc32)nc1 | 2.75 µM [falling, partial curve, poor fit] | 7.76 µM [falling, partial curve]
Cc1nc(-c2cn3c(n2)-c2ccc(-c4cnn(C(C)(C)C(N)=O)c4)cc2OCC3)n(C(C)C)n1 | 6.92 µM [falling, partial curve] | 15.5 µM [falling, partial curve]
C=CC(=O)N1CCC[C@H](n2c(=O)n(-c3ccc(Oc4ccccc4)cc3)c3c(N)ncnc32)C1 | 13.8 µM [falling, partial curve, poor fit] | 19.5 µM [falling, partial curve, poor fit]
COc1c(Nc2ncc(Cl)c(N[C@H]3[C@@H](C(N)=O)[C@@H]4C=C[C@H]3C4)n2)ccc2c1CC[C@@H](N1CCOCC1)CC2 | 5.49 µM [falling, partial curve] | 4.9 µM [falling, partial curve]
CO[C@H]1/C=C\C=C(\C)C(=O)NC2=CC(=O)C(NCCN(C)C)=C(C[C@@H](C)C[C@H](OC)[C@H](O)[C@@H](C)/C=C(/C)[C@@H]1OC(N)=O)C2=O | 0.347 µM [falling, full curve] | 0.389 µM [falling, full curve, poor fit]
COc1nc(OCc2cccc(-c3ccccc3)c2C)ccc1CNCCNC(C)=O | 19.5 µM [falling, partial curve] | 19.5 µM [falling, single point]
Cn1ncc(Cl)c1-c1cc(C(=O)NC(CN)Cc2ccc(F)c(F)c2)oc1Cl (stereo unspecified) | 19.5 µM [falling, partial curve] | 19.5 µM [falling, single point]
CNC(=O)CCc1cc(-c2ccc(-c3ccc(C(F)(F)F)cc3)cc2)n(-c2ccc(N3CCNCC3)cc2)n1 | 3.47 µM [falling, single point] | 5.49 µM [falling, single point]
